Reference: the supplement of paper PMC3334620
Whole data set: some 33,000 sequences, median “E-score (-0.5 to 0.5)” near -0.035, cut for the highest 2% near 0.34. The list shows a part of the results.

What follows are sequences tested against T1, Mot3 (UniProt P54785) (assay: PBM E-score (8-mer binding enrichment) (E-score (-0.5 to 0.5)); higher = stronger / more preferred TF binding; most listed sequences are background and not binding sites). Conditions: protein concentration: 200 nM; construct: GST-full length.
T1 sequence: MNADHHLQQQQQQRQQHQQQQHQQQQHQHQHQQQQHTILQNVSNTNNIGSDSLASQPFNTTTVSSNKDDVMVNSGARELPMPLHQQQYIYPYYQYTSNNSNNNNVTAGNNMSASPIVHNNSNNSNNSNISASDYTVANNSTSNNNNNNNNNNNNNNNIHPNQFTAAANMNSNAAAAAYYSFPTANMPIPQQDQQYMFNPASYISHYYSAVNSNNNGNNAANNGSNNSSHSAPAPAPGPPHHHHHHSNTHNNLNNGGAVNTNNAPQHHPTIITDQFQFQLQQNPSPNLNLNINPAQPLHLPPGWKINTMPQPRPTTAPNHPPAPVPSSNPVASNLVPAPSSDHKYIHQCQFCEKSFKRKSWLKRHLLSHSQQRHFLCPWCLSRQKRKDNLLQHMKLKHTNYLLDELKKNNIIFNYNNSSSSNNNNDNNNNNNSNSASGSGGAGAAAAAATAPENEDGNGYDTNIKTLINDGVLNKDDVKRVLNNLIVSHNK
Procedure, shortened: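 Each ungapped eight-base word and its reverse complement, pooled, received an E-score from the Universal PBM Analysis Suite. Underlying scans, normalised with masliner, recorded fluorescent anti-GST bound to GST-tagged yeast transcription factors. These were applied at about 100-200 nM to universal all-10-mer Agilent arrays double-stranded by primer extension.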

In order of falling “PBM E-score” value:
1. ATAGGAAA  0.429
2. TACCTGCA  0.403
3. AGGTACAT  0.367
4. AGTACACG  0.357
5. TGTAGAAA  0.337
6. AACAATAT  0.295
7. ACATGACC  0.293
8. GACGCGTA  0.284
9. GTTGCGTA  0.278
10. TAGGTAAA  0.276
11. GTAGTACA  0.249
12. GTGTGAAA  0.248
13. CAATAACA  0.241
14. CACAAAAC  0.219
15. ATAAGGTG  0.206
16. GGTAACAA  0.203
17. GAAATCAC  0.198
18. AGTTGACA  0.183
19. AACCACGT  0.182
20. ACCCAAAT  0.179
21. AAAGTTAT  0.169
22. CATACAAC  0.15
23. CGTGCTTA  0.145
24. GCTGATTA  0.144
25. ACAGACAC  0.138
26. TATACTCA  0.136
27. CTCCTACA  0.136
28. TGCTACAA  0.134
29. ATTTCGAA  0.123
30. CGTAACGC  0.113
31. ACGTAAGC  0.112
32. CTGCGTGA  0.111
33. ACAAACCC  0.11
34. CATACTAC  0.108
35. GGGTTGCA  0.106
36. ATCTCGTA  0.104
37. GGCTCTAA  0.0881
38. CATGCACC  0.0817
39. CTAATTAA  0.0811
40. CAGGCGAC  0.0795
41. AAGATTGC  0.0785
42. ATTATATC  0.0718
43. GGTTAAGA  0.0705
44. CAATATAC  0.0688
45. CGAAATAC  0.0685
46. CAGCCATG  0.0677
47. CGTGCATA  0.0644
48. ACACCGAT  0.0564
49. AGAACGCA  0.0555
50. ATCACGAT  0.0535
51. AAACGGTG  0.0529
52. TACTAGAA  0.0406
53. ATTCGCGG  0.0358
54. ACCGCATA  0.0346
55. CAAAGCAA  0.0343
56. CAATTTAG  0.0343
57. GAATTATC  0.0318
58. AATCATAA  0.0305
59. ACGCAGAG  0.028
60. AGAATTGC  0.0267
61. AACCACTT  0.0242
62. AAGTCTAA  0.0239
63. TTAGATAA  0.0208
64. ATCGAAGG  0.0206
65. TAAGTGCA  0.0199
66. AGCAAAGG  0.0188
67. TCTGTCAA  0.0185
68. ACTATTCT  0.0156
69. AAAATTCT  0.015
70. AATGCTAA  0.0146
71. GACATCGC  0.0096
72. CGAGGTGC  0.00872
73. ACATCTCC  0.00689
74. AGTCAGTA  0.00564
75. GGTATGAA  0.00221
76. ATTCCAAG  0.00035
77. AAGCTATA  -0.00123
78. AAGTTGTC  -0.00484
79. CTGTCTGA  -0.00697
80. CAAGCTGC  -0.00705
81. AGCAAATA  -0.00724
82. ATAATTTC  -0.00851
83. GCTCATCA  -0.0165
84. AAACAATT  -0.024
85. AATTCCGG  -0.0255
86. CGGTATTC  -0.027
87. CACTCGGA  -0.0306
88. CTCGTATC  -0.0313
89. CCTACATC  -0.0321
90. GTACGAGA  -0.0381
91. ATGTGCTA  -0.0423
92. ATGGTCCA  -0.0445
93. AGACACTA  -0.0445
94. GAGCTAAC  -0.0447
95. TCGATCAA  -0.045
96. GCTAGCTA  -0.0486
97. ACGCTAAG  -0.0516
98. AACGGAGT  -0.0554
99. CGGTTTCC  -0.0596
100. ATGCTCAC  -0.0615
101. GTCCCACA  -0.0631
102. CTTGTCCC  -0.0647
103. CTCGCGTC  -0.0669
104. ATGTGGTC  -0.0678
105. ACGAACCC  -0.07
106. AGTAAGAC  -0.0721
107. ACTCAACC  -0.0726
108. AGAAACGG  -0.079
109. CCAGTTGA  -0.0825
110. GGACAGGA  -0.0828
111. CTTTTATC  -0.0834
112. AACCTGGA  -0.0836
113. AGTCCTTC  -0.0861
114. AGTGCTAC  -0.0891
115. TGAGCAAA  -0.0898
116. GATAGATC  -0.0899
117. GAAACTCC  -0.0903
118. AGGTCAAG  -0.0903
119. GGCGATTA  -0.0927
120. GAGAAAGC  -0.0963
121. CCTTCGCC  -0.106
122. CTCGAGTC  -0.122
123. TCTCATAA  -0.122
124. CCAGATAG  -0.123
125. TCGGACAA  -0.133
126. GAGCCCAA  -0.136
127. AACTTGAG  -0.141
128. ATCCTATC  -0.144
129. CCCCTCAG  -0.151
130. GATAGGGA  -0.155
131. CTGTTCCC  -0.157
132. GGTGAAAC  -0.161
133. ACCCCAAT  -0.162
134. ACTCCTGA  -0.165
135. CAACAGTC  -0.167
136. GCCATCCC  -0.168
137. AGTAACTC  -0.177
138. ATGTCCGC  -0.18
139. CCGGCGTC  -0.189
140. AATCACGA  -0.189
141. CCCTAGGA  -0.191
142. GGACGGCC  -0.199
143. GCAGCTCC  -0.2
144. CGGGTCGC  -0.201
145. CCAAGGAC  -0.205
146. CGAGCGGC  -0.214
147. AGTCGCCG  -0.214
148. AGGGGAGC  -0.216
149. GCCGGCCA  -0.218
150. CAAGGGTC  -0.219
151. AGTCAGTC  -0.219
152. AGTGTGGG  -0.221
153. CCGAAGAA  -0.223
154. CCGCTACC  -0.223
155. ATGTCCCA  -0.224
156. ATGGAGAC  -0.228
157. TCAGATCA  -0.237
158. CCCGCTTA  -0.244
159. GGTTAGAA  -0.245
160. CAGCTCGA  -0.265
161. CGATGCCG  -0.268
162. CCCATCCA  -0.275
163. GGATGCTA  -0.276
164. CCCCATCC  -0.28
165. AGCTTCCC  -0.287
166. GTGAGACA  -0.288
167. GCCAAACC  -0.297
168. CACCGGAG  -0.299
169. CGGGGATC  -0.303
170. ACCCCGCT  -0.322
171. CCGGATTC  -0.329
172. GCTCCTCA  -0.332
